Hit rate of the full screen: of about 52,000 compounds, about 1,700 (3.3%) were called active. Rule as the data show it: active = survival mostly below about 52% (no sharp cut-off); inactive = mostly above about 56%. Some of the results follow.

The test system of this experiment is Wild type. Put plainly: S. aureus survival, RN4220 and DeltatarO strains – OD600, teichoic acid synthesis inhibitors, primary screen (AID 463173). As to conditions: S. aureus RN4220 wild type/DeltatarO growth, OD600, 18 h, stronger effect = lower value, screened at 18.75 µg/mL (by protocol).
Turning to `CCC(Cc1ccccc1)NC(=O)c1cccc(Nc2nc3ccccc3nc2-n2nc(C)cc2C)c1` (stereo unspecified), the survival is inactive: 78%. With `CC(C)OCCCn1c(SCc2ccccc2Cl)nc2c(sc3ccccc32)c1=O`, the survival is inactive: 159%. Under `CCOc1ccc(NC(=O)CSc2cn(CC(=O)N3CCOCC3)c3ccccc23)cc1` stands inactive: 95%; under `CCC1CCCCN1C(=O)Cn1c(=O)n(-c2ccc(Cl)c(Cl)c2)c(=O)c2c(C)c(C(=O)N(C)C)sc21` (stereo unspecified), inactive: 79%; under `CCOc1ccc(NC(=O)C2CCC(CNS(=O)(=O)c3ccc4c(c3)CCCC(=O)N4)CC2)cc1` (stereo unspecified), inactive: 60%. Next, `COc1ccc(CCNC(=O)c2cc(=O)[nH]c3ccc(S(=O)(=O)N4CCCCC4)cc23)cc1OC`: inactive: 71%. Under `CC(=O)Nc1c(C)nn(-c2ccccc2)c1N1CCC(C(=O)NCc2cccc(F)c2)CC1` stands active: 1%.

As to `Cc1ccc(N(CC(=O)N2CCN(c3cccc(C)c3C)CC2)S(=O)(=O)c2c(C)nn(C)c2C)cc1`, the survival was inactive: 69%. Next, `CCN(c1cc(C)cc(C)c1)S(=O)(=O)c1nnc(NC(=O)c2ccccc2C)s1`: inactive: 50%. In the case of `CCN(CC)c1nn2c(=O)c(C(=O)NCc3ccccc3Br)cnc2s1`, the survival is inactive: 90%. Next, `Cn1nc(C(=O)NCc2ccccc2Cl)c2c1-c1ccccc1SC2`: inactive: 88%; `Cc1cccc(NC(=O)c2ccc(Cn3nc(N4CCN(c5ccccc5)CC4)ccc3=O)o2)c1C`: inactive: 73%; `O=C(NCCc1ccc(Cl)cc1)c1cc2c(s1)-c1ccccc1OC2`: inactive: 105%.

For the compound `COc1cc(OC)c2c(C)c(CC(=O)NCc3ccccc3OC)c(=O)oc2c1`, the survival was inactive: 87%. Next, `CCOc1ccc(NC(=O)N2CCN(C(=O)c3nsc4ccccc34)CC2)cc1`: inactive: 78%. Next, `CCCC(c1nnnn1Cc1ccc(OC)cc1)N1CCC(C(N)=O)CC1` (stereo unspecified): inactive: 100%; `CC1(C)CC(=O)C(C=NCc2ccccc2)=C(O)C1`: inactive: 113%. Under `O=c1c2ccccc2[nH]c(=S)n1C1CCCC1` stands inactive: 107%. `COc1ccc(-c2cc(C(F)(F)F)nc(SCC(=O)N(C)Cc3ccccc3)n2)cc1`: the survival is active: -1%. Next, `O=S(=O)(Nc1cccc(-c2ccc(N3CCOCC3)nn2)c1)c1ccc(F)c(C(F)(F)F)c1`: inactive: 89%; `COc1ccc(CCNC(=O)c2ccc3c(c2)CCN3S(=O)(=O)c2ccc(C)cc2)cc1OC`: inactive: 80%. For the compound `CCOc1ccc(C(C(=O)NC2CCCC2)N(Cc2ccco2)C(=O)Cn2nnc3ccccc32)cc1OC` (stereo unspecified), the survival was inactive: 103%.

For the compound `O=C(O)C1C2C=CC(C2)C1C(=O)NCCN1CCOCC1` (stereo unspecified), the survival is inactive: 102%.

In the case of `O=C(COc1ccccc1Cl)Nc1ccc2nc(SCC(=O)N3CCOCC3)sc2c1`, the survival was inactive: 88%. Next, `CCSc1nc2sc3c(c2c(=O)n1-c1ccc(C)c(Cl)c1)CCN(C(C)=O)C3`: inactive: 70%; `O=S(=O)(c1ccc2nc(Nc3ccc(Br)cc3F)ccc2c1)N1CCCCC1`: inactive: 81%; `COc1ccc(CN(CCN(C)C)Cc2ccccc2)c(OC)c1`: inactive: 114%. Under `O=C(CCNS(=O)(=O)c1ccc2c(c1)CCCC(=O)N2)NCc1ccc(Cl)cc1` stands inactive: 72%; under `Cc1cc(Cl)ccc1OCCSc1nnc(-c2cccs2)o1`, inactive: 67%. Under `Cc1ccccc1Cn1cc(S(=O)(=O)c2ccc(F)cc2)c(=O)c2cc3c(cc21)OCO3` stands inactive: 85%. `Cc1cc(=O)n(Cc2ccc(Br)cc2F)c2c1c(C)nn2-c1ccccc1`: the survival is inactive: 75%. Under `Cc1ccc(NC(=O)Cn2c(=O)n(CCCCC(=O)NCCc3ccccc3)c(=O)c3ccccc32)cc1` stands inactive: 97%; under `COC(=O)c1sccc1S(=O)(=O)N(CC(=O)Nc1cc(F)ccc1F)c1ccc(C)c(C)c1`, inactive: 133%.

As for `CCc1ccc(-c2[nH]nc3nc(-c4cc(OC)ccc4OC)cc(C(=O)O)c23)cc1`, the survival was inactive: 100%. Next, `CCc1nccn1S(=O)(=O)c1cc(Br)ccc1Br`: inactive: 69%. Under `COc1ccc(C)cc1NC(=O)CN(C)S(=O)(=O)c1ccc2[nH]c(=O)oc2c1` stands inactive: 77%; under `COC(=O)c1ccc2c(c1)N(CC(=O)Nc1ccc(C)cc1Cl)C(=O)c1ccccc1S2`, inactive: 81%.

For `CCn1c(C)c(C)c2cc(C(=O)NCCc3cc(OC)ccc3OC)ccc21`, the survival is inactive: 68%. Under `O=C(Nc1cccc(C(F)(F)F)c1)C1CCCN(S(=O)(=O)c2cccc3nonc23)C1` (stereo unspecified) stands inactive: 95%. Consider `Cc1oc2ncn(CC(C)C)c(=O)c2c1C(=O)NCCCN(C)Cc1ccccc1`, for which the survival is inactive: 76%. Next, `Cc1cc2oc(C(=O)Nc3ccc(S(=O)(=O)N(C)c4ccccc4)cc3)cc(=O)c2cc1C`: inactive: 87%; `Cc1oc2c(C)c3oc(=O)c(CCC(=O)N4CCCCC4)c(C)c3cc2c1C`: inactive: 99%; `CC(C)(C)c1ccc(C(=O)Nc2nnc3n2CCS3)cc1`: inactive: 69%.

For the compound `CCOC(=O)c1c(SCC(=O)Nc2cccc(C)c2C)nc(=O)[nH]c1C`, the survival was inactive: 63%. For `COc1cc(-c2nnc(SCCOc3ccccc3)o2)cc(OC)c1OC`, the survival is inactive: 84%. Next, `CCOC(=O)Cn1c(=O)oc2cc(S(=O)(=O)Nc3ccccc3F)ccc21`: inactive: 65%; `CC(=O)N1CCc2c(sc(NC(=O)CSc3ccc(F)cc3)c2-c2nc3ccccc3s2)C1`: inactive: 120%. Under `COc1ccc(-c2noc(-c3ccc(NCCc4ccccc4)c([N+](=O)[O-])c3)n2)cc1` stands inactive: 84%; under `COc1ccc(S(=O)(=O)N(CC(=O)Nc2ccc3c(c2)OCO3)c2ccccc2)cc1`, inactive: 117%; under `Cc1noc(C)c1C(=O)N(c1ccccc1)C(C(=O)NC1CCCC1)c1ccc(F)cc1` (stereo unspecified), inactive: 107%.

For `O=C(Cn1cc(S(=O)(=O)Cc2ccccc2Cl)c2ccccc21)Nc1ccc(F)cc1F`, the survival was inactive: 88%. Next, `NC(Cc1ccccc1)C(O)(c1ccccc1)c1ccccc1` (stereo unspecified): inactive: 110%; `COc1ccccc1N1CCN(C(=O)COc2ccccc2C#N)CC1`: inactive: 83%. Next, `CCOc1ccc(CNC(=O)c2ccc3c(c2)N(Cc2ccccc2)CCS3)cc1`: inactive: 95%. In the case of `O=C(Cn1ncc2c(Cl)cccc21)NCc1cccc(F)c1`, the survival was inactive: 117%. For `COc1ccc2[nH]cc(NC(=O)N3CCN(C(=O)OC(C)(C)C)CC3)c(=O)c2c1`, the survival was inactive: 101%.

These data come from PubChem BioAssay AID463173 (ICCB-Longwood Screening Facility, Harvard Medical School, 2010).
